Reference: PubChem BioAssay (Tox21)
Results filed as inconclusive are left out. Unless noted, calls come from the whole dose curve; as a rule, active = well fitted curve in the direction sought with a large enough effect in the repeat runs; inconclusive = weak or mixed curves; inactive = no such curve, though single readings can be large; an effect the other way counts as inactive or inconclusive. Some entries of the source have several records that differ or are many. This is not the full list of results. The source may hold further records. Values that stand side by side are repeated measurements in other runs, samples, wells, individuals or studies. Some compounds were tested as several samples or in several runs, with calls that do not always agree. Marks in square brackets tell the records apart. The letters are not those of the source and start again with each entry.

Tests used:
[1] = qHTS assay to identify small molecule antagonists of the thyroid receptor (TR) signaling pathway (AID 743065); note: nearly all actives have a fitted effect of over 55% in size
Procedure, shortened: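 Antagonism measured as loss of luciferase signal in GH3 cells stably carrying a TRE-luciferase reporter, co-treated with compound and T3 (1 nM final) for 23.5 h at 37 C. Viability was read in the same well by CellTiter-Fluor.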

[2] = qHTS assay to identify small molecule antagonists of the glucocorticoid receptor (GR) signaling pathway - cell viability counter screen (AID 720693); note: nearly all actives have a fitted effect of over 55% in size
[3] = qHTS assay to identify small molecule agonists of the constitutive androstane receptor (CAR) signaling pathway - cell viability counter screen (AID 1224836); note: nearly all actives have a fitted effect of over 45% in size
Procedure, shortened: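 23 h treatment, 37 C, 5% CO2. Cell line: HepG2 stably expressing hCAR with a CYP2B6-2.2kb construct. Co-treatment: PK11195, 0.75 uM final. Read-out: CellTiter-Fluor fluorescence intensity.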

[4] = qHTS assay to identify small molecule antagonists of the constitutive androstane receptor (CAR) signaling pathway - cell viability counter screen (AID 1224837); note: nearly all actives have a fitted effect of over 45% in size
Procedure, shortened: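 Cytotoxicity counter-screen: CellTiter-Fluor fluorescence after 23 h compound exposure (15-point qHTS) in double-stable HepG2-CYP2B6-hCAR cells, with 50 nM CITCO added.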

[5] = qHTS assay to identify small molecule agonists of the sonic hedgehog signaling (Shh) pathway (AID 1259368; calls by dose curve; note: nearly all actives have a fitted effect of over 15% in size)
Procedure, shortened: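 Luminescence was read after 30 min at room temperature with luciferase reagent. Before that, 3T3Gli1-Luc cells (NIH/3T3 clone, stable Gli1-Luc reporter; 2,000/well) were exposed to compounds for 24 hr at 37C, 5% CO2, compounds being added 4 hr post-plating.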

[6] = A CellTox Green Cytotoxicity Assay to monitor cytotoxicity in HEK293 cells - 24 hour (AID 1224875); note: nearly all actives have a fitted effect of over 45% in size
Procedure, shortened: (§1)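 Fluorescence from a DNA-binding dye excluded by viable cells was measured repeatedly in the same HEK293 wells (600 cells/well) during continuous compound exposure at 37 C. Each assay gives one read point: 0, 8, 16, 24, 32 or 40 h.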

[7] = A CellTox Green Cytotoxicity Assay to monitor cytotoxicity in HEK293 cells - 16 hour (AID 1224888); note: nearly all actives have a fitted effect of over 35% in size
Procedure, shortened: as §1

[8] = qHTS assay for small molecules that induce genotoxicity in human embryonic kidney cells expressing luciferase-tagged ATAD5 - cell viability (AID 651634; calls by dose curve; note: nearly all actives have a fitted effect of over 25% in size)
Procedure, shortened: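 Cytotoxicity counter-readout: after 15.5 hr compound treatment at 37C, live-cell protease activity in ATAD5-luciferase HEK293T cells measured by CellTiter-Fluor fluorescence, 30 min development at 37C.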

[9] = qHTS assay to identify small molecule antagonists of the androgen receptor (AR) signaling pathway using the MDA cell line - cell viability counter screen (AID 743041; note: nearly all actives have a fitted effect of over 45% in size)
Procedure, shortened: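 Viability read by CellTiter-Fluor fluorescence in the same wells as the antagonist screen, added after 15.5 h of a 16 h, 37C exposure. Human breast carcinoma MDA-kb2 AR-luc cells, compounds co-dosed with agonist R1881.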

[10] = qHTS assay to identify small molecule antagonists of the progesterone receptor (PR) signaling pathway - cell viability counter screen (AID 1346798); note: nearly all actives have a fitted effect of over 50% in size
Procedure, shortened: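 In the same plates used for the beta-lactamase readout, cell viability of compound- and R5020-treated PR-UAS-bla HEK293T cells (16 hr, 37C) was assessed by CellTiter-Glo luminescence.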

[11] = qHTS assay to identify small molecule antagonists of the peroxisome proliferator-activated receptor gamma (PPARg) signaling pathway - cell viability counter screen (AID 743194); note: nearly all actives have a fitted effect of over 55% in size
Procedure, shortened: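 Viability was measured as CellTiter-Glo luminescence in GeneBLAzer PPARg UAS-bla HEK293H cells. These cells had been exposed 17 h at 37 C to compounds together with rosiglitazone at 50 nM final, with the beta-lactamase readout taken in the same wells.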

[12] = qHTS assay to identify small molecule antagonists of the estrogen receptor alpha (ER-alpha) signaling pathway using the BG1 cell line in the presence of 0.1 nM 17-beta-estradiol - cell viability counter screen (AID 1259241); note: nearly all actives have a fitted effect of over 40% in size
Procedure, shortened: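 In this screen, hormone-deprived VM7Luc4E2 cells were seeded at 4,000 per well, dosed with compound and 0.1 nM estradiol final, and incubated 22 hr at 37C and 5% CO2; fluorogenic live-cell protease signal reported viability.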

[13] = qHTS assay to identify small molecule antagonists of the thyroid receptor (TR) signaling pathway - cell viability counter screen (AID 743064); details: GH3.TRE-Luc viability, CellTiter-Fluor, 24 h; note: nearly all actives have a fitted effect of over 50% in size
Procedure, shortened: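 CellTiter-Fluor readout, 30 min at 37 °C/5% CO2, following 23.5 h incubation of GH3.TRE-Luc cells with test compound and 1 nM T3 (final).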

[14] = qHTS assay for small molecule agonists of the p53 signaling pathway - cell viability (AID 651633; calls by dose curve; note: nearly all actives have a fitted effect of over 30% in size); details: p53RE-bla HCT-116 viability, ATP luminescence, 16 h
Procedure, shortened: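 Viability counter-read: CellTiter-Glo luminescence (30 min, room temperature) in the same p53RE-bla plates. These plates had been exposed to compounds for 16 h at 37 C.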

[15] = qHTS assay for identifying genotoxic compounds that show differential cytotoxicity against isogenic chicken DT40 cell lines with known DNA damage response pathways - wild type cell line (AID 743012); details: DT40 wild type chicken cells viability, CellTiter-Glo, 40 h; note: nearly all actives have a fitted effect of over 60% in size
Procedure, shortened: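 Viability by ATP luminescence (CellTiter-Glo, 30 min RT) after 40 h compound treatment at 37 C/5% CO2, using 300 parental DNA repair-proficient DT40 cells per well.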

[16] = qHTS assay to identify small molecule agonists or antagonists of the thyroid stimulating hormone receptor (TSHR) signaling pathway - wild type cell line counter screen (AID 1259384; calls by dose curve)
Procedure, shortened: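 Counter screen in untransfected Hek293: compounds (15-point titration, triplicate) plus phosphodiesterase inhibitor Ro20-1724 added after 18 h plating; 30 min RT. Intracellular cAMP via competitive d2/cryptate immunoassay, 1 h incubation.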
Potency is the fitted concentration of half-maximal effect.

CCC(C)(C)C(=O)O[C@H]1C[C@@H](C)C=C2C=C[C@H](C)[C@H](CC[C@@H]3C[C@@H](O)CC(=O)O3)[C@H]21
Potency [1]: inactive [sample A] and active: 38.6 µM [sample B]

Cc1ccc(-c2cc(C(F)(F)F)nn2-c2ccc(S(N)(=O)=O)cc2)cc1
Potency [2]: inactive [sample A] and active: 54.7 µM [sample B]
Potency [3]: active: 48.4 µM [sample A] and inactive [sample B]
Potency [4]: active: 61.1 µM [sample A] and inactive [sample B]

O=C1CC2(CCCC2)CC(=O)N1CCCCN1CCN(c2ncccn2)CC1
Potency [1]: inactive [sample A] and active: 48.6 µM [sample B]

NNCCc1ccccc1
Potency [5]: active: 21.8 µM [sample A] and inactive [sample B]

COC(=O)/C=C/c1ccccc1
Potency [6]: inactive [sample A] and active: 21.9 µM [sample B]
Potency [7]: inactive [sample A] and active: 21.9 µM [sample B]

O=C(O[C@@H]1Cc2c(O)cc(O)cc2O[C@@H]1c1cc(O)c(O)c(O)c1)c1cc(O)c(O)c(O)c1
Potency [8]: active: 61.3 µM [sample A] and inactive [sample B]

Cc1cc(Cc2cc(C)cc(C(C)(C)C)c2O)c(O)c(C(C)(C)C)c1
Potency [9]: inactive [sample A] and active: 61.1 µM [sample B]
Potency [4]: active: 61.4 µM [sample A] and inactive [sample B]

COc1ccc(CCN2CCC(Nc3nc4ccccc4n3Cc3ccc(F)cc3)CC2)cc1
Potency [2]: inactive [sample A] and active: 17.8 µM [sample B]

CN(C)c1ccc(C(=C2C=CC(=[N+](C)C)C=C2)c2ccccc2)cc1
Potency [8]: inactive [sample A] and active: 2.17 µM [sample B]
Potency [9]: inactive [sample A] and active: 4.33 µM [sample B]

O=S(=O)(O)c1ccc2nc(-c3ccccc3)[nH]c2c1
Potency [10]: active: 26 µM [sample A] and inactive [sample B]

Cc1c2oc3c(C)ccc(C(=O)N[C@@H]4C(=O)N[C@H](C(C)C)C(=O)N5CCC[C@H]5C(=O)N(C)CC(=O)N(C)[C@@H](C(C)C)C(=O)O[C@@H]4C)c3nc-2c(C(=O)N[C@@H]2C(=O)N[C@H](C(C)C)C(=O)N3CCC[C@H]3C(=O)N(C)CC(=O)N(C)[C@@H](C(C)C)C(=O)O[C@@H]2C)c(N)c1=O
Potency [9]: inactive [sample A] and active: 26.6 µM [sample B]

CC(C)CCCCCCc1ccc(O)cc1
Potency [8]: inactive [sample A] and active: 62.2 µM [sample B] and inactive [sample C]
Potency [11]: active: 22.3 µM [sample A] and inactive [sample B]
Potency [3]: active: 6.22 µM [sample A] and inactive [sample B]
Potency [4]: active: 6.98 µM [sample A] and inactive [sample B]
Potency [12]: active: 15.6 µM [sample A] and inactive [sample B]

CCCCCCCCCCCC[N+](C)(C)C
Potency [9]: inactive [sample A] and active: 13.7 µM [sample B]
Potency [11]: inactive [sample A] and active: 6.16 µM [sample B]

Cc1cc(OCCOCC[N+](C)(C)Cc2ccccc2)ccc1C(C)(C)CC(C)(C)C
Potency [3]: active: 60.8 µM [sample A] and inactive [sample B]
Potency [4]: active: 60.8 µM [sample A] and inactive [sample B]

CCC(=O)/C=C/C1C(C)=CCCC1(C)C (stereo unspecified)
Potency [6]: active: 49.1 µM [sample A] and inactive [sample B]
Potency [7]: active: 39 µM [sample A] and inactive [sample B]

CCCCC(CC)COC(=O)CC(C(=O)OCC(CC)CCCC)S(=O)(=O)O (stereo unspecified)
Potency [13]: active: 26.6, 18.8, 58.8, 61.1 µM [separate samples]
Potency [1]: active: 18.8, 16.8, 58.8, 54.5 µM [separate samples]
Potency [10]: inactive [sample A] and active: 30.6 µM [sample B]

Oc1c(Cl)cc(Cl)c(Cl)c1Cc1c(O)c(Cl)cc(Cl)c1Cl
Potency [6]: active: 48.9 µM [sample A] and active: 49 µM [sample B] and inactive [sample C]
Potency [12]: inactive [sample A] and inactive [sample B] and active: 18.8 µM [sample C]

CCN(CC)C(=S)SSC(=S)N(CC)CC
Potency [8]: inactive [sample A] and active: 4.86 µM [sample B]
Potency [6]: active: 224 nM [sample A] and inactive [sample B]
Potency [7]: inactive [sample A] and active: 56.2 µM [sample B] and inactive [sample C]

Clc1ccc2c(c1)C(N1CCNCC1)=Nc1ccccc1O2
Potency [11]: active: 54.9 µM [sample A] and inactive [sample B]

Nc1ccc2cc3ccccc3cc2c1
Potency [5]: active: 9.86 µM [sample A] and inactive [sample B]

COC(=O)c1cccc(C(=O)OC)c1
Potency [6]: inactive [sample A] and active: 43.6 µM [sample B]
Potency [7]: inactive [sample A] and active: 43.6 µM [sample B]

CC(=O)C1=C(C)[C@@H]2C[C@@]3(C1)[C@H](C)CC[C@H]3C2(C)C
Potency [1]: active: 80.4 µM [sample A] and inactive [sample B]

CCCCCC(=O)O[C@]1(C(C)=O)CC[C@H]2[C@@H]3CCC4=CC(=O)CC[C@]4(C)[C@H]3CC[C@@]21C
Potency [3]: active: 38.3 µM [sample A] and inactive [sample B]

Nc1ccc(O)cc1
Potency [3]: active: 28.4 µM [sample A] and inactive [sample B]
Potency [4]: active: 28.4 µM [sample A] and inactive [sample B]
Potency [12]: active: 28.4 µM [sample A] and inactive [sample B]

CCc1cc(C(C)(C)C)c(O)c(C(C)(C)C)c1
Potency [8]: active: 43.7 µM [sample A] and inactive [sample B]
Potency [7]: inactive [sample A] and active: 21.9 µM [sample B]

CC1=CC(=O)c2ccccc2C1=O
Potency [2]: inactive [sample A] and active: 54.9 µM [sample B]
Potency [9]: inactive [sample A] and active: 48.6 µM [sample B]

CC(=O)Nc1ccc(C(=O)CCl)cc1
Potency [8]: inactive [sample A] and active: 61.1 µM [sample B]
Potency [1]: inactive [sample A] and active: 6.86 µM [sample B]
Potency [6]: inactive [sample A] and active: 17.4 µM [sample B]

Nc1nc(=S)c2[nH]cnc2[nH]1
Potency [14]: active: 2.37 µM, 1.88 µM, 750 nM, 545 nM [separate samples]
Potency [8]: active: 13.3 µM [sample A] and inactive [sample B]
Potency [15]: active: 1.68, 1.19, 4.73, 2.17 µM [separate samples]

Oc1c(Cl)cc(Cl)cc1Sc1cc(Cl)cc(Cl)c1O
Potency [6]: active: 43.8 µM [sample A] and active: 43.6 µM [sample B] and inactive [sample C]
Potency [7]: active: 43.6 µM [sample A] and inactive [sample B]

CC(C)(C)NC(=O)[C@@H]1CN(Cc2cccnc2)CCN1C[C@@H](O)C[C@@H](Cc1ccccc1)C(=O)N[C@H]1c2ccccc2C[C@H]1O
Potency [8]: active: 29.8 µM [sample A] and inactive [sample B]
Potency [1]: active: 26.6 µM [sample A] and inactive [sample B]

CC(=O)OCCOCCOCCOC(C)=O
Potency [16]: active: 569 nM [sample A] and inactive [sample B]

CCCCCCCCCCCCc1ccccc1O
Potency [4]: inactive [sample A] and active: 61.1 µM [sample B]

CCCCCCC(O)CCCCCCCCCCC(=O)O (stereo unspecified)
Potency [10]: inactive [sample A] and active: 27.3 µM [sample B]
